Values belong to the binder of their own block, whether it stands above or below them.
How the values were obtained:
[1] = biological target: T1, Type I IGF receptor; assay: competitive displacement of 125I-IGF-1 from IGFR
T1 construct: also called IGF-I RECEPTOR; Insulin-like Growth Factor Receptor

[2] = biological target: T1, Type I IGF receptor; assay: competitive displacement of labelled tracer from IGFR
[3] = biological target: T2, human insulin receptor isoform A (human); assay: competitive displacement of 125I-insulin from receptor
T2 construct: the A isoform lacks exon 11); also called IR-A; HIRA

Kd [1]: 3.14 nM
relative affinity [1]: 0.015 relative to IGF-1
B1: Lantus ® (ligand)
chain 1: not shown
chain 2: not shown

relative affinity [2]: 3.54 relative to human insulin
Kd [3]: 0.008 nM
relative affinity [3]: 4.25 relative to human insulin
B2: His^A8, Asp^B10, Asp^B28, Pro^B29 insulin (two chain analogue) (ligand)
chain 1: FVNQHLCGSDLVEALYLVCGERGFFYTDPT
chain 2: not shown
notes: also called A8-His, B-10 Asp, B 28-Asp, B 29-Pro ins; two-chain control analog
